Here are results for five molecules from PMC11444770, “Moesin contributes to heat shock gene response through direct binding to the Med15 subunit of the Mediator complex in the nucleus” (Open Biology, 2024).

The chains behind the UniProt entries cited, without tags or fusion partners. Residues count along the entry.
UniProt P46150, residues 1-484: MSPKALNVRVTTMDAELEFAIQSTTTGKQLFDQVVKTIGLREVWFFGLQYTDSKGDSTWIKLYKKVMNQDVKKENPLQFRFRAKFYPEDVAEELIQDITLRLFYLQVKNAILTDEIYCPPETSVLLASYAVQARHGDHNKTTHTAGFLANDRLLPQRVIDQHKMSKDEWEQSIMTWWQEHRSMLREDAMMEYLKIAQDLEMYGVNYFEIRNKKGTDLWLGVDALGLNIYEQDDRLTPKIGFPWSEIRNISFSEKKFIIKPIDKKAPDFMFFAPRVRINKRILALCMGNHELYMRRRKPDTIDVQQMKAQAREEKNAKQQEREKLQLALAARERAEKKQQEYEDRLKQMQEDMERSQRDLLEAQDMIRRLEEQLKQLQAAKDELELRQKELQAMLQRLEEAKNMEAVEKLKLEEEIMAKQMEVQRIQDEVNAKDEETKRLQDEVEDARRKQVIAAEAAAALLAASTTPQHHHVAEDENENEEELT

No constants are given. Whether binding was seen depends on the method and setting. In cells and extracts the contact can be indirect. Some binding calls cover weakened binding; strength is not graded here.

B1: Med15 (IVTT) (protein, UniProt Q9Y149 1-749)
chain: MTEDWQSQKFRQNVISKIHDLLPPNAQDQTKNAGVMENHIFRKSRTKDEYLGLVAKLFMHYKDMSRKSQQQQQQQQQQGGPPPNAEMGGGQNMMQDPLNALQNLASQGNRNPQMMPMGAGGGAPVPGGPGTASNLLQSLNQQRPGQQQMQPMSNIRGQMPMGAGGAGAQQMMQVQQMQQGGNAPGVMNVMGAGGGQNQGQIVGNPGQQMGVGVGMPNQMVGPGPNSGPAVGGAGGPNAAPGAGGPGPNQMQGGPMNVNAMQQMPPMQQIQQNQLGMGMNPMMRMGQGNGMGGPQGMPGQGMQGMPQGPHNVVGGPAGQQQVGGAGLPPNAVQQGGMNPMGGMGVNMPPNLQQKPNMPMGQAGQMFPGNRGGVGVGGQQPGQPFMRSSPSPADAQQLQQQAQLQQMQQQQQQLVVGNQTPTQQPPTPQMPTPNMIPSPALVPQSSPQMMQMQNSQRNIRQQSPSASINTPGQVTGNSPFNPQEEALYREKYKQLTKYIEPLKRMLAKISNDGTNVEKMTKMSKLLEILCNPTQRVPLETLLKCEKALEKMDLISYSGQQFGKSSNPLLEVINTTLQSPVANHTLYRTFRPTLELLFGTDITAPVPAKRPRVEEKSTSFEQEVPHVLQGEIARLDTKFKVKLDTTSQINNKAIRLICCLDDKRLPSVPPVSVSVPEEYPWQAPDCSLAEQEYSATPFLQTVQQALIARISKLPKNYSLSHLLDTWEMAVRQACSPQSKPRAVCELSTLLGV
modifications: 35S-Methionine labelled
B2: Med17 (IVTT) (protein, UniProt Q9VEC1 1-642)
chain: MSNSVNISVETTCENQIREIGYDGTELYQPPPTLSESLAKCAARIDFSKTSLDDLKKEEKSAAAAADEDKDATQFQESLWPWDAVRNKLKDALTEICVLSDVISIAKDKRYLVLDPLLEEADDTKPIVQVYSRKKAISQAAQVLLSGAERLRNAHSEQRNRNVSDFHIELLRLRQNWRLKKVSNAIIGDLSYRTAGSKFGMSGTFEVTKAEETGDEDTASSSNSSSSVSGNNGMQLKASSALRVIVPAELQGVAYIKVITQKDQEDLCTAQLNLMGHGPNITAQVGVWQKTLEFAQNVLFCKELFAQLAREAIQLQAPIPHVVIGNQIRATLLPNIQLIISLCHSTTFDSSQPAPINDHDHVLEHSLHQLLREVHYKNSHHPFPHPASAPLGPTKKRMLAGPMAADRETLLDMTKSQTILEQIIAQAQHIFMRKRTQYVLDTLARDVKDPQIVSHWNAMNSPTMSCVKINIVTHGYDAIGRTSLVIHVKERSLKCICRDGRVMRLSYEPQELRDLILCQINSHQISCLISLARCMSWTVLSNSNHLGIGKVEPLGNASSCLLASPNSDRMIAVQIRCDPQIDVKVYIARSPRQDFFPSPLVPEKLWENLGGTFKEVRFDKIEGKSFLNKMEFLMASLTSNTA
modifications: 35S-Methionine labelled
B3: Med6 (IVTT) (protein, UniProt Q8MSX2 1-249)
chain: MASRQMTNDHLRLSWHDTQMMATLSPQTVMDYFCRKSNPFYDHMCNNETVRMQRLGPEHLHNMIGLEYILLHVAEPILYVIRKQHRHNPSEATPIADYYIIGGTVYKAPDLANVINSRILNTVVNLQSAFEEASSYARYHPNKGYTWDFSSNKVFSDRSKSDKKDANSAKDENSGTLFQKQRVDMLLAELLRKFPPPIPPMLQNLQQPPPAGDDLNTARNASEMNNATGPLDIKTEGVDMKPPPEKKSK
modifications: 35S-Methionine labelled
B4: Med11 (IVTT) (protein, UniProt Q9VVS4 1-176)
chain: MNPLDKIHALDEIEKEIILCMQSAGQALQELGKEKSSQKNAETQSQQFLKSLSSVESKLSEQINYLTQVSTGQPHEGSGYASAKVLQMAWHRIQHARSRVRELEETKAKHSHAARQQLKRQQEHAAAQQQQQQQQQQQQQQQQMQQAAQQQQQQTGGGNAGSGDHPMGGDSSMSTN
modifications: 35S-Methionine labelled
B5: Med8 (IVTT) (protein, UniProt A1ZBT5 1-252)
chain: MQRDEKLFELTLDTVLQRLNDLKLAVLSMIQKLELEYETINWPTFLDNFAIISSHLTGLTKILAKEQCPPLRNRTVLPLLVSMDRDDTLINITEGRVPVFSHDIVPDYLRTRPDPITEQKMLQNEQKAANLTNDAAMKQVTQYNKVVSHVLDMVSKAREEWEIESSSRTGIQQTSSMADTQLLVAAVGMGKGLKLTNYGPGPGMMVPPSIRAPSPMGGPAMSPGNVQQQLGKAPSAVKTNIKSANQVHPFSR
modifications: 35S-Methionine labelled

The target of this test is GST-FERM-Moesin (Drosophila melanogaster) (UniProt P46150). As to the kind of experiment: pull-down; GST-IVTT binding assay: GST-FERM-Moesin immobilised on glutathione beads, 35S-methionine-labelled IVTT preys; 50 mM Hepes pH 7.5, 150 mM NaCl, 2 mM MgCl2, 1 mM EGTA, 1 mM DTT, 0.1% Triton X-100, 0.5 mg/ml BSA; 1.5 h at 4°C; autoradiography; only the target purified.
For B1, the binding result is “binds”. The result for B2 reads “binds”; that for B3, “no binding”. The entry for B4 is “no binding”; for B5 it is “no binding”.
